According to the supplement of paper PMC3334620:
Over roughly 33,000 sequences, “E-score (-0.5 to 0.5)” has its median near -0.04; the highest 2% begin near 0.36. The list shows a part of the results.

target: T1, Hmlalpha2 (UniProt P0CY09); experiment: PBM E-score (8-mer binding enrichment) (E-score (-0.5 to 0.5)); higher = stronger / more preferred TF binding; most listed sequences are background and not binding sites; conditions: protein concentration: 200 nM; construct: GST-full length
T1 sequence: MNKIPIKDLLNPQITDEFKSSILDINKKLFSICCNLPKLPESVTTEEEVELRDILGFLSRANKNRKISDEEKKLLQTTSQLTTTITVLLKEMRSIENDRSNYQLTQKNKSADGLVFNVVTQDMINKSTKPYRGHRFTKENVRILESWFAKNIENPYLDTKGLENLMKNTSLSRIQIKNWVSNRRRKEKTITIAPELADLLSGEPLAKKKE
Procedure, shortened: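 Universal all-10-mer Agilent arrays, fresh or stripped once, were converted to double-stranded form by primer extension. GST-tagged yeast transcription factors from PURExpress in vitro transcription/translation, full-length or DNA-binding domain only, were applied at about 100-200 nM and detected with fluorescent anti-GST. After masliner normalisation, the Universal PBM Analysis Suite scored each ungapped eight-base word together with its reverse complement by E-score.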

| Sequence | PBM E-score |
| --- | --- |
| CGGTCGAG | -0.201 |
| GTGCGAGA | -0.0911 |
| CTCTCTCC | -0.24 |
| TGATGAAA | 0.0453 |
| GCAGGAAA | -0.0984 |
| CTCATTAA | 0.106 |
| TCATTGGA | 0.0975 |
| CCCTATGA | -0.278 |
| CCATTGCG | -0.262 |
| ATAAGCAA | 0.112 |
| TGAGTACA | 0.249 |
| AAGGCACT | -0.203 |
| TGAGACAA | -0.221 |
| CCTTGAAA | -0.176 |
| GAACCATA | -0.109 |
| ATGCGGTG | -0.25 |
| TAGATTCA | 0.0528 |
| CCCGGACA | -0.0938 |
| TAACGTAA | 0.331 |
| CTTATGTA | 0.409 |
| ATCCAGCC | -0.167 |
| ACACGCGA | 0.378 |
| CGGACAGA | -0.0354 |
| CAACTAGC | 0.0853 |

| Sequence | PBM E-score |
| --- | --- |
| GTGCGTCA | -0.0806 |
| CTTTTAAC | 0.222 |
| GGTACGCA | 0.111 |
| GTGCCGTA | 0.0149 |
| ACGCCTAG | -0.128 |
| CGGGTCAC | -0.196 |
| AAACGGTT | -0.0207 |
| CGTATCAG | -0.105 |
| AGAATCGA | -0.0964 |
| CCGAACTA | -0.0215 |
| CACGAGAC | -0.0265 |
| ATTCAGAG | -0.0465 |
| GTCGGTCA | -0.174 |
| CCCGTTCG | -0.0811 |
| ACCTCCAT | -0.192 |
| AGACTGAA | 0.0304 |
| AACTTGGT | 0.0922 |
| AAAGTCCG | -0.118 |
| AAAGAGTT | -0.102 |
| GTTAGAAA | 0.0789 |
| AAACAACC | 0.168 |
| GTGAGAAA | -0.0612 |
| CCGCCAAC | -0.263 |
| CCACGGGG | -0.278 |

| Sequence | PBM E-score |
| --- | --- |
| AGAGAGGA | -0.223 |
| CTTAAGCA | -0.0819 |
| ATTTCTGC | 0.0344 |
| GCCGTACA | 0.0778 |
| CCCGCATA | 0.0385 |
| ACTCGTGG | -0.0958 |
| CTCTCAGA | -0.256 |
| CAGATAAC | 0.0509 |
| AGCCAATG | -0.0511 |
| ACCGTTAG | -0.0782 |
| CCTATTAA | -0.0431 |
| AATATGAC | 0.0994 |
| ACCGGTAA | -0.00891 |
| GTGTCGTA | 0.277 |
| GAGGAGGA | -0.227 |
| CCCTGCCG | -0.364 |
| AATTATTG | 0.0733 |
| AATTCCCA | 0.124 |
| GTTAGAGA | -0.0671 |
| AAACTAGA | 0.0433 |
| CTCTACTC | -0.104 |
| AGAACTTA | 0.149 |
| ACCTAGGG | -0.16 |
| CTTTCGAA | -0.197 |

| Sequence | PBM E-score |
| --- | --- |
| ATAGGTAC | 0.0401 |
| AGACCATG | -0.0012 |
| AGTCATAG | -0.323 |
| GATGGCTA | -0.127 |
| TGAACACA | 0.347 |
| TAAGAGAA | 0.155 |
| ATAATACA | 0.38 |
| CGAACAAC | 0.202 |
| CGTCAGCC | 0.0153 |
| GATGAACC | -0.0126 |
| GATGGGCC | -0.28 |
| ATAGTCCG | 0.00442 |
| AACTGGGG | -0.291 |
| CAGCCAAG | -0.125 |
| ATGTAACG | 0.362 |
| AAAGACAC | 0.231 |
| ATACTACC | -0.0181 |
| AACTTCAC | 0.121 |
| CCCTTTCG | -0.011 |
| AGTTCTAG | -0.249 |
| AGGCTAGC | -0.209 |
| AAAGTCAC | 0.0449 |
